The supplement of paper PMC3334620
In all, about 33,000 sequences were measured (“E-score (-0.5 to 0.5)”: median about -0.036, highest 2% from about 0.37 on). The list shows a part of the results.

What follows are sequences tested against T1, Yer064c (UniProt P40041) (assay: PBM E-score (8-mer binding enrichment) (E-score (-0.5 to 0.5)); higher = stronger / more preferred TF binding; most listed sequences are background and not binding sites). Details: protein concentration: 200 nM; construct: GST-full length.
T1 sequence: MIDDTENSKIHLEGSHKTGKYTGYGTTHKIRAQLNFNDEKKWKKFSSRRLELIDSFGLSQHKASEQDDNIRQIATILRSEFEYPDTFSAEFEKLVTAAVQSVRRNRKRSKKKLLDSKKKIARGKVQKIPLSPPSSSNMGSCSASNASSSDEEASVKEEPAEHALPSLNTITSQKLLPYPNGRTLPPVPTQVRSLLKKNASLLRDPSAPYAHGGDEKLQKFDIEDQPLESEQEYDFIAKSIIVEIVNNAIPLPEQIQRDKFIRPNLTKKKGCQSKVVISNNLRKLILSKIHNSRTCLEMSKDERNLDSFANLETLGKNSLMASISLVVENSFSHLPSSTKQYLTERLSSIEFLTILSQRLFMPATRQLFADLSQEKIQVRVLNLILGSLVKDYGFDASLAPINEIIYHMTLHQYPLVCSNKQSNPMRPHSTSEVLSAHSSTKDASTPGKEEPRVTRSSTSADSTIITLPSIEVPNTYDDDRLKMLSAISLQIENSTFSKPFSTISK
Protocol: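 Universal 'all 10-mer' protein binding microarrays (Agilent AMADID 015681) probed with GST-tagged S. cerevisiae TFs (full-length or DBD) made by in vitro transcription/translation (PURExpress), about 100-200 nM. Bound TF was detected with fluorescent anti-GST. Each ungapped 8-mer (which stands for itself and its reverse complement) is scored by the PBM enrichment score (E-score), a modified Wilcoxon-Mann-Whitney statistic from -0.5 to +0.5, computed with the Universal PBM Analysis Suite. Scale: above 0.35 generally sequence-specific binding.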

Sequence	PBM E-score
TCGTAAAA	0.142
CCAACCAA	-0.265
ACACGGCC	-0.148
AGGCGGTG	-0.167
CAGCCCTC	-0.22
CCTCTGCA	-0.264
ACTAGCCG	-0.0796
TCATGCCA	0.105
CTATGGCA	-0.311
CTCTCCAA	-0.0296
CCGTTGAG	0.0485
ATGGCACA	-0.0931
TCTTTTAA	0.0984
ACCGTAAG	0.0406
CCGCGGGA	-0.0837
CCGGAGGA	-0.212
ATGGGCTA	0.0866
ACTAACTA	0.286
CAAAAGTA	0.0505
AAGTCTCG	0.0175
GGTTTTTA	0.0583
AGTTGGGC	-0.15
GACCGAAA	0.0708
ATAGCTAC	-0.0568
GCTCGAGA	-0.0023

Sequence	PBM E-score
ACGACGCT	-0.265
ACAATAAA	0.101
CCCGTTAA	-0.101
AACATTGG	-0.218
AGGTGTTA	-0.102
CAGGGTTA	-0.0541
ACTGTCAC	0.114
AGACATCA	0.278
CGACGTCC	-0.334
GGCCATGA	0.074
GTTGTACA	0.00913
GCTTATGA	0.254
GCCGTTGA	0.117
CGGGGTCC	-0.35
GCTCGATA	-0.0601
AGATCTCA	0.0373
GAGAACGA	-0.0613
AAGGGTCG	-0.0814
GGCTGTAA	-0.0447
AGGCATTA	-0.229
CATCGACG	0.035
CGCATCCA	-0.0959
GTAGTGAC	0.132
TCTCTGCA	0.138
AAGTTGTA	-0.0146

Sequence	PBM E-score
CGGGGATA	-0.194
CCACATCG	-0.0203
ATAATTTG	0.0214
ACGCCACC	-0.145
CGATTATC	0.13
AAACAACA	0.101
TCTGAAGA	-0.00804
CTGTCAGA	-0.111
CCTCGACA	-0.112
CTACAGTA	0.0252
TAAGATGA	0.193
ATCCGTAG	-0.0702
CTGCAATC	0.0315
GACAATAC	0.00248
AGTCCGAC	0.31
AGAACGGA	-0.109
ATGGAGAA	-0.144
GGAAATAC	-0.159
AGCGTTAC	0.0465
CCCCAGAC	-0.166
ACGCAACG	-0.0214
ATATAGAC	0.146
CACCGTAA	0.0186
CACCTCGA	0.0618
ACTCAAAA	0.317

Sequence	PBM E-score
AGTCGTTC	0.359
AGATGGAT	-0.276
ATTAGAGG	-0.0816
CCTGCGCC	-0.291
CCCAGGTC	-0.162
ATTCTTAC	0.0372
AAAACTCG	0.0941
TCACTGAA	0.106
CATCTCTC	0.00767
AAAACTGA	0.00201
AGTCTGAC	0.303
GATGGCAC	-0.428
CGCGACCA	-0.126
GGTGGGTA	0.0712
ATCCTTCG	0.0319
CACGATTA	0.193
CGTAGCGA	-0.229
ACTCGAAT	0.199
CAGCTTCA	0.0349
TCAGCGAA	0.186
CACACGAG	0.0738
ATTTTGTA	0.00667
AGATTATA	-0.00226
AAACACGA	0.0587
ATTCTCCG	0.0303

Sequence	PBM E-score
CCGCAAGG	-0.283
ATTGCGGA	0.124
GAGTCCAC	0.325
CTAACGCA	-0.00525
AAGACGCT	-0.238
GCGAGGCA	-0.0616
TATGAACA	0.0759
AAATGGAA	-0.0228
ATTTAATA	0.117
AAGAAGCA	-0.00711
GCGCTACC	-0.175
TTATCAAA	0.233
CTAATCGC	0.128
CGAGAAAA	-0.0321
CTCAGACC	0.121
AGTAATAT	0.0983
CAGCCACC	0.0165
GTGAGGTA	0.0206
CAGGGCTC	-0.184
CACAAAAG	0.0565
GAATATAA	-0.00715
CTCGGGTC	-0.195
AGGAGGCC	-0.278
CGGTAATA	0.0979
GATACTAC	-0.0689

Sequence	PBM E-score
ATAGCTTC	-0.258
AGTAACCC	0.179
TTACGAAA	0.053
AACTATTG	-0.00378
AAGCCATT	0.125
CCCAAAGC	-0.121
AGTGACAA	0.0598
CCTCTCCG	-0.231
ACGACTCG	0.394
TCACGACA	0.0914
AGTAGGCA	0.00447
AGATGAGG	-0.0692
GAAACCTC	-0.149
AGGAGTGC	-0.352
ACAGAAAC	0.0324
CAGGTAAC	-0.013
CGTATCTA	-0.117
CGATATCG	0.0784
CCCTCAAC	-0.228
CCATGTAG	0.00415
AGCTCTCG	-0.152
ATCTGACA	-0.0612
AATGCCCT	-0.232
AAGAAAGA	0.162
ACGGTCGG	0.00214

Sequence	PBM E-score
TGATCGCA	-0.0724
GGTGCCGA	-0.129
CTAGAAAC	0.0516
CCACATTC	-0.0158
GCAGATCC	-0.0228
AGGGGGCC	-0.357
CATTAGCA	-0.0935
CTTTCCGC	-0.125
AGGTGACT	0.484
TGACCTAA	0.204
CCAGTCGG	-0.125
GATAGACA	0.0601
ATCCTGTG	0.00109
AAGTATGG	0.079
ATTAGTAC	0.205
AATAATTA	0.13
ATGGGCGG	-0.0899
CTAAGATC	0.0074
GCGTCCGA	-0.125
GGTAGGTA	0.0405
CCCAATAG	-0.158
AGCGTTTC	-0.125
AGCCTTTG	-0.205
AACGGAAT	-0.00613
ACAGCCGA	-0.222

Sequence	PBM E-score
GAATGTAA	-0.0881
CGCGCTAA	-0.0181
CGAGCACA	0.0683
GCCCGGCC	-0.0469
ATTCCAAC	0.079
AGCCGGAA	-0.22
AGATTAGG	0.16
CGTGCGTA	-0.0487
GCCAACCA	-0.199
GGCGGATA	-0.0818
AAACATTC	-0.137
CGCCTTCC	-0.169
AAGGTTAA	0.205
CGACGACC	-0.121
ACGTAGCA	-0.112
GACAACTC	-0.111
CCATGGTC	-0.0499
ACCCCCTC	-0.399
ATGCAGAG	-0.0631
ATGGCGAA	0.0775
GGCTGAGA	0.0401
CGTCCTCA	-0.126
AAAAACAA	0.0429
GTACCGAA	-0.0603
ACCGTACC	-0.0655

Sequence	PBM E-score
CGCACCAA	0.00864
ACGAATTC	-0.0901
GGGATCGA	-0.12
CAGCCCCC	-0.308
CTGGGAGA	-0.178
AGCTGGGG	0.0108
CCCCCGGC	-0.0733
GATCCCGA	-0.183
ATATGGAG	-0.107
AGGTCCCG	-0.252
GTAAGGCA	0.0072
GTCCATCA	-0.0251
CACGGCTG	-0.115
AGTCAATG	0.377
GATCGGGA	-0.195
CTAAATAG	0.0388
CCTGTGTC	-0.102
AGGGGAAG	-0.303
CGTAGTAC	0.064
AGACACTG	0.0291
GCCTCCGA	-0.224
ATCAGCGC	0.182
CCGCTCAA	-0.0697
CTGCATCA	-0.0294
CCTACTTC	-0.0773

Sequence	PBM E-score
AAAGGGGT	-0.196
ATATACAC	0.0575
AACAACGG	-0.0346
CATCGCGA	0.0199
CCGGTCAA	-0.11
CGGCACCC	-0.276
CAAGACTC	0.429
AGCTCAAA	0.106
ATAAGGCG	-0.134
CGGTCAAA	-0.0249
GGAGGAAC	-0.161
ATCTCAAG	-0.0959
AGGCTTGA	0.0633
CGACGTGA	0.0646
ATAGTTGC	0.0257
CAGGTGGC	0.0289
CGACCTCC	-0.251
CGTAGTCA	0.483
TACAGAAA	0.112
ACCAGCCG	-0.0843
ACTTGAAT	0.118
GAGGATAC	-0.159
CCAGTTCA	-0.114
AATCATTA	0.397
CCTCAGTA	-0.103

Sequence	PBM E-score
GACAACCA	0.0326
CGGTCAAC	-0.0708
CAACTGAG	0.1
ACTTCAGA	0.239
TAGCGCCA	-0.164
TAGGGATA	-0.141
GAAGCCGA	-0.0862
AGACGCCG	-0.264
GGCATCGA	-0.247
CGGCCCAC	-0.175
AATACACA	0.135
CCCTCCGC	-0.257
ATGTGGAA	-0.0113
GGAATAAC	-0.024
CTGGTTAA	0.162
CCTCTTAG	0.031
CTCGTACA	-0.0862
TAGTTTGA	0.0842
TATTCACA	0.013
CGGGAATC	0.0615
GCTGGGCC	-0.265
CACTCGCG	-0.074
GAGAAACC	-0.145
CTATCCCA	-0.208
ACCTATGG	0.0486

Sequence	PBM E-score
CCTCCTTA	-0.0895
AGTAATTA	0.215
AGACGAGG	-0.265
ATCGCGTA	-0.064
AACTCTTC	-0.0379
TAAACGTA	-0.0489
ATAACGCC	-0.224
ACTGTTCG	0.16
ACGTGTGA	0.149
AACCGGTG	-0.201
GTCGATTA	0.14
TCACGTAA	0.0225
CGGCCAAA	-0.054
CACCGCTA	-0.229
ATTGTTAA	0.145
CTGTTAAG	0.113
GCTTGACA	-0.189
AACTGTGT	-0.0355
AGCAAGCA	-0.237
GCCCCCGC	-0.414
ACGGCCAT	-0.168
GACGCTGA	0.201
GGTTACCA	-0.0717
TCCATGAA	0.141
CGAGCAAC	-0.076

Sequence	PBM E-score
GTAGCGGA	0.0493
ATTGGCAA	0.0157
CTGGTCGC	-0.174
CGTCGGGA	-0.118
ACGCGGAT	-0.0599
ATTTCCCG	-0.101
AAAGCGCT	-0.0519
ATCACGCA	0.254
TAGAGGAA	-0.079
AGAGTGTA	-0.0869
AAAGGTCT	-0.0473
CCTGTTAA	0.00635
ATAGAACA	-0.0734
CCAATCAG	0.0381
AGCGGCAG	-0.272
CGTCACTA	0.0406
ATGTACTA	-0.00272
ACTAAGGC	0.153
CCGTGTTA	-0.00223
ACCTTTAG	-0.0755
GGGAGGTA	-0.19
TCAGAGCA	-0.0716
AAATTCCA	-0.013
GCACGGCA	-0.121
ATATGATA	0.083

Sequence	PBM E-score
ACGCTGTG	-0.0445
ACAACAAC	0.204
ACTCAAAT	0.294
GACTTAAC	0.296
AATTAATA	0.179
GAGTGCGC	-0.143
CGCTCCAG	-0.143
ATAATATA	0.0466
ATCACGTG	0.0887
AATCAAGC	0.288
AGACACCC	0.236
CAACTTAC	-0.0378
AGGTGTCG	-0.0844
CTGGCCCA	-0.271
CATCAGGA	-0.0161
AGCCGCTA	-0.151
CGCATGAC	0.274
TCGTGCAA	0.235
GAGGGTGC	-0.281
